Data taken from PMC4336329 (PLoS ONE, 2015).
Out of some 310,000 compounds screened, about 2,200 (0.71%) showed an effect of 50% or more. The effect is printed as a negative number. Some of the results follow. Where a SMILES comes first, the peptide text is derived from it. The star is where a group is joined. Boc = CC(C)(C)OC(=O)*; Bn = c1ccc(C*)cc1

target: human ether-à-go-go-related gene (hERG) potassium channel (human, UniProt Q12809); test: primary screen, population patch clamp on CHO cells stably expressing hERG
Sequence (Q12809 whole entry, looked up): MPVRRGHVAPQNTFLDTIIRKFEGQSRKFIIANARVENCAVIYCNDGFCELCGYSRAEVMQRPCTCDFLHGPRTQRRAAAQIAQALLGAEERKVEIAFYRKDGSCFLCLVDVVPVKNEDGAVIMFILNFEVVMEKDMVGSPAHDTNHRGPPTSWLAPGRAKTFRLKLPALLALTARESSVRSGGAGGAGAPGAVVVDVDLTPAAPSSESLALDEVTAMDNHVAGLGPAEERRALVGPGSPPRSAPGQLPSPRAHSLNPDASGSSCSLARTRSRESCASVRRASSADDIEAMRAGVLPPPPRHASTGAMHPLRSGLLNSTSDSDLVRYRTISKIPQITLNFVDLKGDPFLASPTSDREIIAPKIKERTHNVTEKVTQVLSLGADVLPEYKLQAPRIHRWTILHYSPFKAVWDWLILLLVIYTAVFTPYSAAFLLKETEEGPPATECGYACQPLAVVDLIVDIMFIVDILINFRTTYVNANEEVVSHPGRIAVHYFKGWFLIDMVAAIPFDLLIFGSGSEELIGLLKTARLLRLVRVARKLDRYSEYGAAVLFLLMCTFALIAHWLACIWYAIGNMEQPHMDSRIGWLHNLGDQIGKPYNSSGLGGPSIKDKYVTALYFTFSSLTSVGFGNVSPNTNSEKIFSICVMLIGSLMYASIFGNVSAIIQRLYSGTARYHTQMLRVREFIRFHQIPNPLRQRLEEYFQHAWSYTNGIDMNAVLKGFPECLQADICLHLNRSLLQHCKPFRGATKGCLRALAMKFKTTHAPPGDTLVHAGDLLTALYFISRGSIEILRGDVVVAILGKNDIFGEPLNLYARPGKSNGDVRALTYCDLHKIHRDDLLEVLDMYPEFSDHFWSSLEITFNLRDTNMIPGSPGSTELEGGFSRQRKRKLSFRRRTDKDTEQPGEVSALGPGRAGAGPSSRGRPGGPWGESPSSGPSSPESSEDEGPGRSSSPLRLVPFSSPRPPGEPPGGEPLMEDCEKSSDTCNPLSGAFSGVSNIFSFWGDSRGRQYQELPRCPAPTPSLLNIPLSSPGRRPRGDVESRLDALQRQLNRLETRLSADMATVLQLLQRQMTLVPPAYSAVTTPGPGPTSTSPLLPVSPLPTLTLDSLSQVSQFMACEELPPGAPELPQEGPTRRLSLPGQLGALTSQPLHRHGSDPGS

Going from CCCN1C(=O)c2ccc(C(=O)Nc3nccs3)cc2C1=O to CCCCN1C(=O)c2ccc(C(=O)Nc3ccc(C)c(S(=O)(=O)N(C)C)c3)cc2C1=O, the “hERG current change (%, negative = inhibition) at 1uM” value falls from -1.84% to -3.31%.

Going from COc1cc(CCC(=O)OCC(=O)Nc2nc(C)c(Cl)cc2Cl)cc(OC)c1OC to CCOCC(=O)Nc1cc(C(=O)OC)cc(C(=O)OC)c1, the “hERG current change (%, negative = inhibition) at 1uM” value rises from 7.43% to 10.2%.

Compared with Brc1ccc(CN2CCCCCC2)cc1, N#CCN1CCN(CC(=O)c2ccc(Br)cc2)CC1 is higher in “hERG current change (%, negative = inhibition) at 1uM” value: -1.78% for the first, 17.7% for the second.

Compared with CCC(C)c1ccccc1N1CC(C(=O)Nc2ccc(S(=O)(=O)N3CCOCC3)cc2)CC1=O (stereo not shown), CCn1cc(C(=O)O)c(=O)c2cc(F)c(N3CCN(S(=O)(=O)c4ccc(NC(=O)OC)cc4)CC3)cc21 is higher in “hERG current change (%, negative = inhibition) at 1uM” value: 2.8% for the first, 14.4% for the second.

Compared with O=C(NNC(=O)c1ccc(Br)s1)c1csc(N2CCOCC2)n1, CNC(=O)NNC(=O)c1csc(Cc2c(Cl)sc3ccc(Cl)cc23)n1 is lower in “hERG current change (%, negative = inhibition) at 1uM” value: 14% for the first, 7.53% for the second.

Compared with CCOC(=O)N1CCC(=NNC(=O)NC2CCCCC2)CC1, CCCn1c(SCC(=O)NC2CCCC2)nnc1C(C)C is lower in “hERG current change (%, negative = inhibition) at 1uM” value: 10.6% for the first, 6.51% for the second.

First: COC(=O)C1=C(C)N(C)C(C)=C(C(=O)OC)C1c1ccc(F)c(Br)c1
Second: CCN(CC)C(=O)c1sc(NC(=O)c2ccncc2)c(C(=O)OC)c1C
The “hERG current change (%, negative = inhibition) at 1uM” value of the first is lower: 6.36% for the first, 9.94% for the second.

Going from O=C(/C(=C/O)N=Nc1ccccc1Cl)c1ccccc1 to O=C(OCc1ccccc1)/C(=C/c1ccccc1Cl)NC(=O)c1ccco1, the “hERG current change (%, negative = inhibition) at 1uM” value falls from 18.7% to 5.64%.

Compared with COc1ccc(Cl)cc1Nc1nc(NCCO)nc(N2CCCC2)n1, COc1cccc2sc(N(CCN(C)C)C(=O)c3ccc4c(c3)CCCC4)nc12.Cl is lower in “hERG current change (%, negative = inhibition) at 1uM” value: 10.3% for the first, 2.16% for the second.

Going from Cc1ccc(Cl)c2c1NC(=O)C2(O)CC(=O)c1ccc(Br)cc1 (stereo not shown) to CN1C(=O)C(O)(CC(=O)c2ccccn2)c2cc(Br)ccc21 (stereo not shown), the “hERG current change (%, negative = inhibition) at 1uM” value falls from 6.68% to 5.78%.

Compared with COc1ccc(-c2noc(Cc3ccccc3OC)n2)cc1, COc1ccc(-n2c(SCC(=O)Nc3ccccc3OC)nc(O)cc2=O)cc1 is lower in “hERG current change (%, negative = inhibition) at 1uM” value: 21% for the first, 16.4% for the second.

Compared with CCCc1nnc(NC(=O)CCN2C(=O)c3ccccc3C2=O)s1, CN1C(=O)c2cccc(NCCCN3C(=O)c4ccccc4C3=O)c2C1=O is lower in “hERG current change (%, negative = inhibition) at 1uM” value: 13.1% for the first, 12% for the second.

First: CCNS(=O)(=O)c1ccc(CCC(=O)N2CCc3ccccc3C2)cc1
Second: Cc1ccc(S(=O)(=O)NCc2ccc(C(=O)N3CCN(c4ccc([N+](=O)[O-])cc4)CC3)cc2)cc1
The “hERG current change (%, negative = inhibition) at 1uM” value of the first is higher: 3.99% for the first, 2.06% for the second.

Compared with CCC(=O)NC(=S)Nc1ccccc1F, Cc1onc(-c2ccccc2)c1CNC(=O)Nc1ccc(F)cc1F is lower in “hERG current change (%, negative = inhibition) at 1uM” value: 16.1% for the first, 9.12% for the second.

First: CCc1ccc(OCCSc2nc3ccccc3n2CC(=O)O)cc1
Second: COCc1nc2ccccc2n1CCc1ccccc1
The “hERG current change (%, negative = inhibition) at 1uM” value of the first is higher: 7.3% for the first, -38% for the second.

Going from Cc1cccc(C)c1N1CCN(c2nc(N(C)C)oc(=O)c2C#N)CC1 to Cc1cccc(C)c1-n1nnnc1C(C)(C)N1CCN(N=O)CC1, the “hERG current change (%, negative = inhibition) at 1uM” value rises from -2.69% to 16.8%.

Compared with COc1cc(OC)cc(C(=O)NNC(=S)Nc2ccc(S(N)(=O)=O)cc2)c1, Cc1ccc(NC(=O)c2ccc3c(c2)CCN3S(C)(=O)=O)cc1C is lower in “hERG current change (%, negative = inhibition) at 1uM” value: 11.5% for the first, 1.9% for the second.

First: CCN(CC)CCNc1nc2nonc2nc1NCCN(CC)CC
Second: CCc1noc(C)c1C(=O)NNC(=O)c1ccc(N(CC)CC)cc1
The “hERG current change (%, negative = inhibition) at 1uM” value of the first is lower: 11.9% for the first, 14.6% for the second.

First: Cl.O=C(CN1CCCC1)NC1C2CC3CC(C2)CC1C3 (stereo not shown)
Second: CCOC(=O)CC1(C)OCC(C[N+]2(C)CCCCC2)O1.[I-] (stereo not shown)
The “hERG current change (%, negative = inhibition) at 1uM” value of the first is lower: -7.88% for the first, 8.19% for the second.

First: COc1cccc(NC(=O)COc2ccc(C(=S)N3CCN(C)CC3)cc2OC)c1
Second: C=C(C)c1cccc(C(C)(C)NC(=O)N2CCN(C)CC2)c1
The “hERG current change (%, negative = inhibition) at 1uM” value of the first is lower: 6.94% for the first, 13.3% for the second.

First: CCOc1ccc(NC(N)=O)cc1OCC
Second: C=CCc1cc(Cl)ccc1OCCNCCOC.O=C(O)C(=O)O
The “hERG current change (%, negative = inhibition) at 1uM” value of the first is higher: 7.76% for the first, 1.7% for the second.

Going from O=C(CCn1cnc2ccccc21)N=Nc1c(O)[nH]c2ccccc12 to CCOC(=O)CN1C(=O)C(Sc2n[nH]c(-c3ccccc3)n2)CCc2ccccc21 (stereo not shown), the “hERG current change (%, negative = inhibition) at 1uM” value falls from 6.64% to -4.36%.

Going from Cc1cc2c3c(c1C)C1(C(=O)N3C(C)(C)CC2C)C(C#N)=C(N)Oc2cc(O)ccc21 (stereo not shown) to Cc1cc(C)n(CC(=O)Nc2ccc(N3CCOCC3)c(Cl)c2)c(=O)c1C#N, the “hERG current change (%, negative = inhibition) at 1uM” value rises from 9.72% to 11.8%.

First: CC(C)CC(NC(=O)C(Cc1ccc(OCc2ccccc2)cc1)NC(=O)OC(C)(C)C)C(N)=O (stereo not shown) (Boc-Tyr(Bn)-Leu-NH2; configuration not given here)
Second: Cc1cccc(C(C)C)c1NC(=O)c1ccc(COc2ccc3c(C)cc(=O)oc3c2)cc1
The “hERG current change (%, negative = inhibition) at 1uM” value of the first is higher: 14.4% for the first, 11.2% for the second.

First: COC(=O)c1c(NC(=O)c2ccccc2)sc(C(=O)c2ccccc2)c1C
Second: CNC(=O)c1c(NC(=O)CCS(=O)(=O)c2ccccc2)sc(C)c1C
The “hERG current change (%, negative = inhibition) at 1uM” value of the first is lower: 1.18% for the first, 9.04% for the second.

Going from Cc1nc(CC(=O)O)c(-c2ccccc2)s1 to COc1ccccc1CC(=O)NCCCc1ccccc1, the “hERG current change (%, negative = inhibition) at 1uM” value falls from 16.5% to 11.2%.

Going from Cc1ccc(OCCN2CCN(CC(O)Cn3c4ccccc4c4ccccc43)CC2)cc1.O=C(O)C(=O)O (stereo not shown) to Fc1ccccc1C(c1nnnn1Cc1ccc2c(c1)OCO2)N1CCN(Cc2ccccc2)CC1 (stereo not shown), the “hERG current change (%, negative = inhibition) at 1uM” value falls from 12.2% to -9.88%.

Going from CN(C(=O)c1cccc(C(F)(F)F)c1)C1CCCc2ccccc21 (stereo not shown) to CC(Sc1nnnn1C)C(=O)NC1CCCc2ccccc21 (stereo not shown), the “hERG current change (%, negative = inhibition) at 1uM” value rises from 10.6% to 11.7%.

Going from Cc1nnc2ccc(-c3ccc(NS(=O)(=O)c4ccccc4[N+](=O)[O-])cc3)nn12 to CC(c1ccco1)N(C(=O)COc1ccccc1[N+](=O)[O-])c1ccccn1 (stereo not shown), the “hERG current change (%, negative = inhibition) at 1uM” value falls from 9.77% to 0.845%.

Going from CCN(CC)C(=O)COc1ccc2c3c(c(=O)oc2c1C)CCCC3 to CC(=O)c1cccc(NC(=O)c2sc3nc4n(c(=O)c3c2C)CCCC4)c1, the “hERG current change (%, negative = inhibition) at 1uM” value falls from 13.1% to 8.51%.

First: CSCC[C@H](NC(=O)[C@@H]1Cc2ccccc2CN1)C(=O)Nc1ccc2c(c1)OCCO2
Second: O=C(CSc1nc2ccccc2c(=O)n1CC1CCCO1)Nc1ccc(F)cc1 (stereo not shown)
The “hERG current change (%, negative = inhibition) at 1uM” value of the first is lower: -5.17% for the first, 4.67% for the second.

Compared with C#CCOCCOCCOCCNc1nc(N2CCN(C(=O)[C@H]([C@@H](C)CC)n3cc(CCCC[NH3+])nn3)CC2)nc(N2CCN(C(=O)[C@H](CCCC[NH3+])n3cc(CCCC)nn3)CC2)n1.[Cl-], COCCNC(=O)CSc1nc2cc3c(cc2c(=O)n1CCCC(=O)NCc1ccc(OC)cc1)OCO3 is higher in “hERG current change (%, negative = inhibition) at 1uM” value: 10.7% for the first, 18.7% for the second.

First: O=S(=O)(c1cnc[nH]1)N1CCN(c2ccccc2)CC1
Second: O=C1CC(N2CCN(c3ccc(C(=O)c4ccc(F)cc4)cc3)CC2)C(=O)N1 (stereo not shown)
The “hERG current change (%, negative = inhibition) at 1uM” value of the first is higher: 13% for the first, -10.5% for the second.

Compared with COc1ccc(C2(c3ccc(OC)cc3)NC(=O)N(Cn3nnc4ccccc4c3=O)C2=O)cc1, CN(c1ccc(OCC(=O)O)cc1)S(=O)(=O)c1ccc2ccccc2c1 is higher in “hERG current change (%, negative = inhibition) at 1uM” value: -1.38% for the first, 14.1% for the second.

Compared with CCOC(=O)C1=C(N)OC2=C(C(=O)CC(C)(C)C2)C1c1cc(CSc2nnnn2C)cs1 (stereo not shown), COC(=O)c1sc2cc(=O)n(-c3cccc(C(F)(F)F)c3)nc2c1O is higher in “hERG current change (%, negative = inhibition) at 1uM” value: -14.2% for the first, -5.78% for the second.

First: O=C(COC(=O)c1ccc(O)cc1)NCCC1=CCCCC1
Second: N#C/C(=C\c1ccc(O)c(O)c1)C(=O)NCCCc1ccccc1
The “hERG current change (%, negative = inhibition) at 1uM” value of the first is lower: 7.77% for the first, 14.7% for the second.

Compared with O=C1NC(=O)C2(CCc3ccccc32)N1 (stereo not shown), O=C(Cc1ccc(F)cc1)N(c1ccccc1)C1C=CS(=O)(=O)C1 (stereo not shown) is lower in “hERG current change (%, negative = inhibition) at 1uM” value: 10.8% for the first, -3.81% for the second.

First: COc1cccc(/C=C2/C(=O)NN(c3ccc(F)cc3)C2=O)c1
Second: CCCOc1cccc(C2/C(=C(/O)c3ccc(F)cc3)C(=O)C(=O)N2CCN(C)C)c1 (stereo not shown)
The “hERG current change (%, negative = inhibition) at 1uM” value of the first is lower: 6.82% for the first, 15.4% for the second.

Compared with CN(C(=O)c1ccncc1)C1CCCCC1, Cc1ccc(-n2c(=O)cc(N3CCC(C)CC3)[nH]c2=O)cc1 is lower in “hERG current change (%, negative = inhibition) at 1uM” value: 18.7% for the first, 10.7% for the second.

Going from COC(=O)c1c(C)[nH]c(O)c1C=Nc1ccc(Oc2ccccc2)cc1 to C/C(=N\NC(=O)c1nn(C)c(C)c1Br)c1ccc(NC(=O)c2ccccc2F)cc1, the “hERG current change (%, negative = inhibition) at 1uM” value rises from 10.5% to 23.5%.

Compared with Cc1ccc2c(c1)=C/C(=C\c1c(O)[nH]c(=S)[nH]c1=O)C(=O)N=2, COc1cc(C)c(S(=O)(=O)NOCc2ccc([N+](=O)[O-])cc2)c(C)c1C is higher in “hERG current change (%, negative = inhibition) at 1uM” value: 8.19% for the first, 10.5% for the second.

Compared with Cc1nonc1NC(=O)c1oc2ccccc2c1C, O=C(N/N=C/c1ccccn1)c1cc([N+](=O)[O-])cc([N+](=O)[O-])c1 is lower in “hERG current change (%, negative = inhibition) at 1uM” value: 10.4% for the first, -3.52% for the second.

For CCc1ccc(C2CC(=O)N3CN(c4ccccc4)CSC3=C2C#N)cc1 (stereo not shown), the “hERG current change (%, negative = inhibition) at 1uM” value was 17.3%.
